Reference: article PMC3901232
Where a chain is given by its changes, count along the chain named. These are yes or no findings as the source states them, for the method shown. In cells and extracts the contact can be indirect. Some results given as binding are weak or reduced against the parent protein; the word gives no strength. Tags and fused reporters may be left off the sequences shown.

Key:
[1] = target: T1, EIICB^Glc-K150E-5His (E. coli K-12) (UniProt P69786); test: cross-linking; as a1, but in the ptsHIcrr deletion strain LJ140 (no phosphorylation of EIICB^Glc can occur); cells grown in the absence or presence of glucose
T1 sequence: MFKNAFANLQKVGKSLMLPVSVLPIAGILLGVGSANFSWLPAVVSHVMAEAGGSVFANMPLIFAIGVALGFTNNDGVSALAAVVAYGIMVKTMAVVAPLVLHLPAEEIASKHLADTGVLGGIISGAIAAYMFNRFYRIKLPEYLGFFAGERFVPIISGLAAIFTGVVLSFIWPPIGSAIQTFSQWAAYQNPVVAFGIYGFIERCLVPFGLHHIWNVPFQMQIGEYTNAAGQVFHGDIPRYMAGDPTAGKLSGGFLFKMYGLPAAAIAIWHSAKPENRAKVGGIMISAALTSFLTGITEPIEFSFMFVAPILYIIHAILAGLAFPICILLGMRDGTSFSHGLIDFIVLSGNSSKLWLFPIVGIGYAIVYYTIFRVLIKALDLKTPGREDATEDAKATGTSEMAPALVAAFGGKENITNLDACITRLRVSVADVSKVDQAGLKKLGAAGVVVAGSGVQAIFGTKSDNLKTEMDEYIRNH

[2] = target: T2, EIICB^Glc-5His (E. coli K-12) (UniProt P69786); test: as above
T2 sequence: T1 sequence with E150K

[3] = target: T3, EIICB^Glc-K382A-5His (E. coli K-12) (UniProt P69786); test: cross-linking; in vivo, 0.3% paraformaldehyde for 20 min at 37 °C; PTS-positive cells (JKA12; also the dgsA deletion strain LJB17) grown with 0.2% glucose; membrane proteins solubilised with 2% Triton X-100; EIICB^Glc-His purified on Ni-NTA agarose; co-purified SgrT-3HA detected by Western blot
T3 sequence: T1 sequence with E150K, K382A

[4] = target: T4, EIICB^Glc-P384R-His (E. coli K-12) (UniProt P69786); test: as above
T4 sequence: T1 sequence with E150K, P384R

[5] = target: T2, EIICB^Glc-5His (E. coli K-12); test: as above
[6] = target: T1, EIICB^Glc-K150E-5His (E. coli K-12); test: condition: only in the PTS-positive strain JKA12, where the K150E transporter remains phosphorylated; cross-linking; in vivo, 0.3% paraformaldehyde for 20 min at 37 °C; PTS-positive cells (JKA12; also the dgsA deletion strain LJB17) grown with 0.2% glucose; membrane proteins solubilised with 2% Triton X-100; EIICB^Glc-His purified on Ni-NTA agarose; co-purified SgrT-3HA detected by Western blot

binding [1]: binds | binding [2]: binds | binding [3]: binds | binding [4]: no binding | binding [5]: binds | binding [6]: no binding
B1: SgrT-3HA (peptide, UniProt C1P5Z7 1-43)
chain: MRQFYQHYFTATAKLCWLRWLSVPQRLTMLEGLMQWDDRNSES
